Experimental data taken from doi:10.1101/550970 (bioRxiv, 2019).

Target: histone H4 (Xenopus laevis), in the nucleosome (Xenopus laevis, UniProt P62799)
Assay: cryo-EM structure

- binding result: binds
B1: human SNF2h (full-length form of the human ISWI remodeler) (enzyme)
chain: MSSAAEPPPPPPPESAPSKPAASIASGGSNSSNKGGPEGVAAQAVASAASAGPADAEMEEIFDDASPGKQKEIQEPDPTYEEKMQTDRANRFEYLLKQTELFAHFIQPAAQKTPTSPLKMKPGRPRIKKDEKQNLLSVGDYRHRRTEQEEDEELLTESSKATNVCTRFEDSPSYVKWGKLRDYQVRGLNWLISLYENGINGILADEMGLGKTLQTISLLGYMKHYRNIPGPHMVLVPKSTLHNWMSEFKRWVPTLRSVCLIGDKEQRAAFVRDVLLPGEWDVCVTSYEMLIKEKSVFKKFNWRYLVIDEAHRIKNEKSKLSEIVREFKTTNRLLLTGTPLQNNLHELWSLLNFLLPDVFNSADDFDSWFDTNNCLGDQKLVERLHMVLRPFLLRRIKADVEKSLPPKKEVKIYVGLSKMQREWYTRILMKDIDILNSAGKMDKMRLLNILMQLRKCCNHPYLFDGAEPGPPYTTDMHLVTNSGKMVVLDKLLPKLKEQGSRVLIFSQMTRVLDILEDYCMWRNYEYCRLDGQTPHDERQDSINAYNEPNSTKFVFMLSTRAGGLGINLATADVVILYDSDWNPQVDLQAMDRAHRIGQTKTVRVFRFITDNTVEERIVERAEMKLRLDSIVIQQGRLVDQNLNKIGKDEMLQMIRHGATHVFASKESEITDEDIDGILERGAKKTAEMNEKLSKMGESSLRNFTMDTESSVYNFEGEDYREKQKIAFTEWIEPPKRERKANYAVDAYFREALRVSEPKAPKAPRPPKQPNVQDFQFFPPRLFELLEKEILFYRKTIGYKVPRNPELPNAAQAQKEEQLKIDEAESLNDEELEEKEKLLTQGFTNWNKRDFNQFIKANEKWGRDDIENIAREVEGKTPEEVIEYSAVFWERCNELQDIEKIMAQIERGEARIQRRISIKKALDTKIGRYKAPFHQLRISYGTNKGKNYTEEEDRFLICMLHKLGFDKENVYDELRQCIRNSPQFRFDWFLKSRTAMELQRRCNTLITLIERENMELEEKEKAEKKKRGPKPSTQKRKMDGAPDGRGRKKKLKL
